# Test results from article PMC6664820, “Novel natural and synthetic inhibitors of solute carriers SGLT1 and SGLT2” (Pharmacology Research & Perspectives, 2019).
# About 40 (2%) of roughly 1,900 compounds showed an effect of 50% or more. Some of the results follow.
# Target: human SGLT1 (hSGLT1) (human, UniProt P13866)
# Assay: primary screen, percent of control activity; higher = less effect of the substance
# Parameters: single well
# Settings: 50 µM
# Summary of the method: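 Single-point screen at 50 µmol/L in CHO-hSGLT1 cells, with 160 µmol/L 1-NBD-glucose in glucose-free DMEM for 90 min at 37°C. Fluorescence from isopropanol extracts was calibrated, and CHO wild-type uptake was subtracted. Data are percent of uptake without compound.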
# human SGLT1 (hSGLT1), sequence (P13866 whole entry, looked up): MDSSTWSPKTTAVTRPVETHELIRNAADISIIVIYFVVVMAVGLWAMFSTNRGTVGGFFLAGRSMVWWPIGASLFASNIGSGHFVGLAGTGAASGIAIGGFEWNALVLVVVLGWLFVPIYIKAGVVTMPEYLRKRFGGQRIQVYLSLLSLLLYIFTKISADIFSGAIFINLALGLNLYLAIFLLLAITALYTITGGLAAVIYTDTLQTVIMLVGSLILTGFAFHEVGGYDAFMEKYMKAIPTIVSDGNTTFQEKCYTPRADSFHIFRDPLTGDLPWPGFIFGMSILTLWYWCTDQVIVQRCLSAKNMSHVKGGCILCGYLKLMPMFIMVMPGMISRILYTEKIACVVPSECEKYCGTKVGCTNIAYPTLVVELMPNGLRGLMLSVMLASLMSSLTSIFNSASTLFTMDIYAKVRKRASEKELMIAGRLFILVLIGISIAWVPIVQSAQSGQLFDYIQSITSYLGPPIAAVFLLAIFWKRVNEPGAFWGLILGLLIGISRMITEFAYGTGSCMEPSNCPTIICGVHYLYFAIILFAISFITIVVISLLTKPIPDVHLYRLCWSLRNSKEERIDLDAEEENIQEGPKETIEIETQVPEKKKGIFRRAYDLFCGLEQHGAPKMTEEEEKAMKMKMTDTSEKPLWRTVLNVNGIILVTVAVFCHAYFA
row,SMILES,NORMALIZED SGLT1 ACTIVITY (%)
1,C=Cc1c(C)c2[n]3c1C=c1c(C)c(CC)c4[n]1[Cu]31[n]3c(c(C)c5c3C(=c3c(CCC(=O)[O-])c(C)c([n]31)=C2)C(C(=O)[O-])C5=O)C=4.[Na+].[Na+] (stereo not shown),94
2,CCCCC(=O)Oc1ccccc1C(=O)O,102
3,C/C=C(\C)C(=O)O[C@@H]1c2c(ccc3ccc(=O)oc23)OC(C)(C)[C@@H]1OC(C)=O,5
4,Cl.O=C(O)C1=CCCNC1,133
5,C/C=C/c1ccc2c(c1)OCO2,187
6,O=C(O)/C=C\C(=O)O.c1ccc2nc(N3CCNCC3)ccc2c1,116
7,CN(C)C(=S)SSC(=S)N(C)C,98
8,CC(=O)Oc1cc(-c2coc3cc(OC(C)=O)c(OC(C)=O)c(OC(C)=O)c3c2=O)cc(OC(C)=O)c1OC(C)=O,98
9,NC(=O)c1ncn([C@@H]2O[C@H](CO)[C@@H](O)[C@H]2O)c1O,84
10,CC(=O)O[C@H]1CC[C@]2(C)C3CC(=O)[C@]4(C)C(C(C)=O)=CCC4C3CC[C@H]2C1 (stereo partly shown),269
11,CC(=O)N1CCN(c2ccc(OCC3CO[C@](Cn4ccnc4)(c4ccc(Cl)cc4Cl)O3)cc2)CC1 (stereo partly shown),162
12,O=C1NC(=O)C(=O)C(=O)N1,99
13,CCCc1nn(C)c2c(=O)[nH]c(-c3cc(S(=O)(=O)N4CCN(C)CC4)ccc3OCC)nc12.O=C(O)CC(O)(CC(=O)O)C(=O)O,242
14,COP(=O)(NC(C)=O)SC (stereo not shown),177
15,CC(C)(O)CC[C@@H](O)[C@](C)(O)[C@H]1CC[C@@]2(O)C3=CC(=O)[C@@H]4C[C@@H](O)[C@@H](O)C[C@]4(C)[C@H]3CC[C@]12C,100
16,CC(=O)NC(C(=O)O)C(C)(C)SN=O (stereo not shown),111
17,C=C1CCC2C(CC2(C)C)C(=O)CCC1O (stereo not shown),130
18,O=c1c(-c2ccc(O)cc2)coc2cc(O)cc(O)c12,529
19,CC(=O)N[C@@H](CC(C)C)C(=O)O,98
20,CC(=O)O[C@@H]1CC2C(C)(C)[C@@H](O)CC[C@]2(C)C2CC[C@@]3(C)[C@H](c4ccoc4)OC(=O)[C@H]4O[C@]43[C@@]21C (stereo partly shown),283
21,C[C@H]1C(=O)O[C@@H]2CCN3CC=C(COC(=O)[C@](C)(O)[C@]1(C)O)[C@H]23,104
22,Oc1ccc(O)cc1,118
23,O=C(O)COc1cc(Cl)c(Cl)cc1Cl,130

row,SMILES,NORMALIZED SGLT1 ACTIVITY (%)
1,CC1=C2C(O)C(=O)OC3CC4C(C)(C)C(=O)C=C[C@]4(C)C(CC1)[C@]23C (stereo partly shown),141
2,CCCCCC(C)N.O=S(=O)(O)O (stereo not shown),109
3,CCn1cc(C(=O)O)c(=O)c2cnc(N3CCNCC3)nc21,143
4,O=C([O-])c1ccccc1O.[Na+],105
5,CCCCC(=O)O[C@]1(C(=O)CO)[C@@H](C)C[C@H]2[C@@H]3CCC4=CC(=O)C=C[C@]4(C)[C@@]3(F)[C@@H](O)C[C@@]21C,207
6,CNC(=O)O/N=C/C(C)(C)SC,139
7,CC(=O)Oc1ccc2c(c1)CCC1C2CC[C@]2(C)C(=O)CCC12 (stereo partly shown),143
8,CCCCCCCCCCCCCCCC[N+](C)(C)C.[Br-],19
9,CC(CC(O)C1OC1(C)C)[C@@H]1CCC2(C)C3=CCC4C(C)(C)C(=O)CCC4(C)C3CC[C@@]12C (stereo partly shown),114
10,O=C(NC(Cc1cc(=O)[nH]c2ccccc12)C(=O)O)c1ccc(Cl)cc1 (stereo not shown),86
11,O=C1c2ccccc2C(=O)c2ccccc21,172
12,O=C(O)c1cc(O)c2c(c1)[C@H]([C@H]1c3cc(C(=O)O)cc(O)c3C(=O)c3c(O[C@@H]4O[C@H](CO)[C@@H](O)[C@H](O)[C@H]4O)cccc31)c1cccc(O[C@@H]3O[C@H](CO)[C@@H](O)[C@H](O)[C@H]3O)c1C2=O,96
13,CN1CCc2cc3c(cc2C1O)OCO3.Cl (stereo not shown),163
14,COC(=O)CCC(=O)O[C@H]1CCC2(C)C(CCC3C2C(=O)[C@@H](O)C2(C)C3CC3OC4(CCC(C)CO4)[C@@H](C)C32)C1 (stereo partly shown),149
15,CN1CCc2cccc3c2C1Cc1ccc(O)c(O)c1-3.Cl (stereo not shown),137
16,NC(=O)N/N=C/c1ccc([N+](=O)[O-])o1,182
17,O=C(O)CCCN1C(=O)c2cccc3cccc(c23)C1=O,203
18,CO/N=C1\CN(c2nc3c(cc2F)c(=O)c(C(=O)O)cn3C2CC2)CC1CN.CS(=O)(=O)O (stereo not shown),157
19,O=c1oc2c(O)c(O)cc3c(=O)oc4c(O)c(O)cc1c4c23,95
20,COc1c(O)cc2c(-c3ccccc3)cc(=O)oc2c1OC,194
21,O=C(O)/C=C/c1ccc(O)c(O)c1,110
22,Nc1ncnc2c1ncn2[C@@H]1O[C@H](COP(=O)(O)O)[C@@H](O)[C@H]1O,135
23,CN(C)CCc1c[nH]c2ccc(C[C@H]3COC(=O)N3)cc12,101
